In assay [1] the test system is NCI-H1975 (L858R/T790M) xenograft. Particulars: once-daily oral; Fig. 5h.
Assay [2] relates to HCC827 (ex19del) xenograft. The format is in vivo, mouse. The conditions noted are these: once-daily oral; Fig. 5e.
Assay [3] deals with PC-9 (ex19del) xenograft. It counts as in vivo, mouse. Particulars: once-daily oral; Fig. 5f.
Assay [4] has as its system A-431 (wild-type) xenograft. It counts as in vivo, mouse. The conditions noted are these: once-daily oral; Fig. 5i.

`C#Cc1c(-c2cnc3ccccc3c2)c2c(N)ncnc2n1C12CCC(NC(=O)c3cnc(C)cn3)(CC1)C2` [TAS3351]: the “antitumor effect (tumor volume)” value in assay [1], in assay [2] and in assay [3] was “statistically significant antitumor effect” throughout.

Turning to `C=CC(=O)Nc1cc(Nc2nccc(-c3cn(C)c4ccccc34)n2)c(OC)cc1N(C)CCN(C)C` [Osimertinib, osimertinib], the “antitumor effect (tumor volume)” value in assay [4] is “statistically significant antitumor effect”.

Take `C#Cc1cccc(Nc2ncnc3cc(OCCOC)c(OCCOC)cc23)c1` [Erlotinib, erlotinib]: in assay [4], the “antitumor effect (tumor volume)” value is listed as “statistically significant antitumor effect”.

Values taken from PMC13181001 (Communications Medicine, 2026).
